The supplement of paper PMC3724861
The other results are listed elsewhere or left out.

tested on: T1, Caupolican (Caup) homeodomain DNA-binding domain; assay: PBM E-score (8-mer, recovered from the published 9-mer minima) (E-score (dimensionless, -0.5 to 0.5)); Drosophila protein; higher = stronger relative binding preference, active = 0.31 or more
T1 sequence: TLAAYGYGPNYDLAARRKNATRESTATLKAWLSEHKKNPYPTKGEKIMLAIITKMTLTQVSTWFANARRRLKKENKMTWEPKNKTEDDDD
Summary of the method: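 An enrichment score, with higher meaning stronger, expresses relative binding preference for each short DNA word. The protein used was Caup's homeodomain DNA-binding domain (residues 214-303), produced by in vitro transcription and translation and tested at 100 nM on custom-designed protein binding microarrays. The 8-mer values were recovered from published 9-mer scores, each equal to the lower of its two constituent 8-mer scores.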

Row | Sequence | PBM E-score
1 | AATTCTAA | inactive: 0.0854
2 | CGGTCCTA | inactive: -0.123
3 | TGGGGAAA | inactive: -0.0126
4 | ACATTGCT | ≥ 0.23
5 | ATTTGCAG | inactive: 0.00423
6 | GCGTTCCA | inactive: -0.0723
7 | CCGCCCAA | inactive: -0.227
8 | AGGCGAAG | inactive: -0.171
9 | CAGACGCC | inactive: -0.147
10 | ATTGGCCG | inactive: -0.0888
11 | CCTTTCAC | inactive: -0.0888
12 | AGCGTGAT | ≥ 0.0866
13 | GTACGTCA | inactive: 0.0986
14 | CTACCTTA | inactive: -0.0253
15 | TACAGGAA | inactive: 0.227
16 | GAGTTCTA | inactive: -0.0956
17 | ATGATTCG | inactive: 0.0716
18 | AGTCGTAG | inactive: 0.0274
19 | GCGTTTCC | inactive: -0.101
20 | GCATATTA | inactive: 0.121
21 | CCTTGGCC | inactive: -0.233
22 | CAACGCTC | inactive: -0.00229
23 | CAGAGGAG | inactive: -0.168
24 | ATTCCGGA | inactive: 0.024
25 | GCAAAAAA | inactive: -0.0391

Row | Sequence | PBM E-score
26 | GAAAAAGA | inactive: -0.0311
27 | AGTACTTC | inactive: 0.0751
28 | GCCCTGTA | inactive: 0.113
29 | ATAATCCG | inactive: 0.0845
30 | GTTTTCTA | inactive: 0.0826
31 | GCAGCAGA | inactive: -0.13
32 | ATCTGTGG | inactive: -0.00655
33 | GCGTTACA | inactive: 0.198
34 | ATTTCATC | inactive: 0.0661
35 | GCGCCACC | inactive: -0.198
36 | GCGCGGGA | inactive: -0.183
37 | CGTATCCC | inactive: -0.0781
38 | AGAACCAG | inactive: 0.0333
39 | CGCACCAG | inactive: -0.0961
40 | ATTAAGTG | inactive: 0.145
41 | GGTTCAAA | inactive: -0.0146
42 | TATAATGA | inactive: 0.0576
43 | CAGGAATC | inactive: -0.00187
44 | ACAAGTGT | inactive: 0.297
45 | ATAATTAA | inactive: 0.218
46 | AGCATCAC | inactive: 0.00867
47 | GAGCTCCA | inactive: -0.145
48 | ACATGGAG | inactive: 0.257
49 | GATCGGTA | inactive: -0.00151
50 | AAGACATT | inactive: 0.0764

Row | Sequence | PBM E-score
51 | CGCCCTGA | inactive: -0.108
52 | CTGGTATC | inactive: 0.108
53 | GCATGAAA | inactive: 0.111
54 | GCACCGCC | inactive: -0.267
55 | AGCAGGGC | inactive: -0.162
56 | ACGATCTG | inactive: -0.0202
57 | ACGAACAG | inactive: 0.137
58 | CGCCGATC | inactive: -0.183
59 | GCCAAAAA | inactive: -0.0156
60 | ATAAACAC | inactive: 0.251
61 | AGCCGAAC | inactive: -0.138
62 | CCCCCAAG | inactive: -0.22
63 | CCAGCACG | inactive: 0.0103
64 | GCAACCTA | inactive: 0.0278
65 | GCGGTTCA | inactive: -0.101
66 | GACCGCAA | inactive: -0.095
67 | AAGAACCG | inactive: 0.0113
68 | CATCTCTA | inactive: 0.0541
69 | ACATTCCT | inactive: 0.0891
70 | CTCAGGAC | inactive: 0.011
71 | ATGCACGA | inactive: 0.115
72 | CACAAACC | inactive: -0.0236
73 | AACTACAT | active: 0.408
74 | CCTCCAGG | inactive: -0.152
75 | ACTTCTAT | inactive: 0.117

Row | Sequence | PBM E-score
76 | AAAAGGCT | inactive: -0.0639
77 | CCGACATA | inactive: 0.256
78 | ACTAGGTA | inactive: 0.123
79 | TGGGCCCA | inactive: -0.221
80 | TAACCAAA | inactive: 0.135
81 | CTTGATGA | inactive: 0.0992
82 | CTAAATAC | inactive: 0.116
83 | TGACTAAA | inactive: -0.0204
84 | AGTGGTAA | inactive: 0.0991
85 | CGTCCATC | inactive: -0.0772
86 | CGAAGATC | inactive: -0.0713
87 | CGTCGAAG | inactive: -0.0713
88 | ACCTGTCG | inactive: 0.161
89 | GGCGTAAA | inactive: -0.0244
90 | ACCGTCGA | inactive: -0.0644
91 | ATTGAGAA | inactive: 0.0669
92 | CCTGAGCA | ≥ 0.0176
93 | ACTACCAC | inactive: 0.136
94 | AATCCGTC | inactive: -0.0348
95 | ACCCAAGC | inactive: -0.122
96 | GAACGGGA | inactive: -0.16
97 | CGAAGAAG | inactive: -0.0167
98 | AGGGATTA | inactive: 0.053
99 | AGAAATCC | inactive: -0.111
100 | AAACTCTT | inactive: -0.0143

Row | Sequence | PBM E-score
101 | CTAGTGCC | inactive: -0.166
102 | GACAAGGA | active: 0.314
103 | GTGGCGGA | inactive: -0.124
104 | CCTTGGAA | inactive: -0.0459
105 | AGGATACA | inactive: 0.249
106 | ACAAGGCA | inactive: 0.301
107 | CAGCCACG | inactive: -0.165
108 | GTACACAC | active: 0.331
109 | AGTCTCAA | inactive: -0.0998
110 | GAGTGGCA | inactive: -0.0892
111 | ACTACCTG | inactive: 0.054
112 | TCCGTCCA | ≥ -0.0288
113 | ATAGTCTA | inactive: 0.104
114 | TAGGTCAA | inactive: 0.0641
115 | CGTAATAG | inactive: 0.0865
116 | AATCCGGC | inactive: -0.121
117 | GTCCTTAA | inactive: 0.0893
118 | CCTAATTA | inactive: 0.0584
119 | CCCCCATC | inactive: -0.285
120 | ATATATTC | inactive: 0.192
121 | CTGCATCC | inactive: -0.107
122 | ACAAACAA | active: 0.317
123 | CGTACCGA | inactive: -0.0516
124 | CCTTTCTC | inactive: -0.119
125 | CCACCTGC | inactive: -0.159

Row | Sequence | PBM E-score
126 | CAGTCATC | inactive: 0.0135
127 | GGCCGTAC | inactive: -0.00275
128 | GCGGGTAA | inactive: -0.02
129 | AGCATTAT | ≥ 0.202
130 | CATAGAGG | inactive: -0.0732
131 | GGGTATTA | inactive: -0.0519
132 | ACGAGGTC | inactive: -0.0579
133 | ACCCGAAA | inactive: -0.018
134 | ACTGGTAC | inactive: 0.127
135 | ATTTGCCC | inactive: -0.0906
136 | AATTAGGC | inactive: 0.0072
137 | CGTGAACA | inactive: 0.206
138 | ATATGTGC | inactive: 0.118
139 | CTCATTTC | inactive: -0.0332
140 | CGTCATGA | inactive: 0.0386
141 | ATACCGAG | inactive: 0.00098
142 | ACCCTAGC | inactive: -0.039
143 | ATACATAC | active: 0.332
144 | AAATAAGT | inactive: 0.139
145 | ATAGCAGC | inactive: -0.0281
146 | AGTCTTTG | inactive: -0.0276
147 | ACCACTCG | inactive: 0.0224
148 | CCCTCCTC | inactive: -0.26
149 | GTAGTGGA | inactive: 0.0565
150 | GCATCGGA | inactive: -0.00106

Row | Sequence | PBM E-score
151 | CGGATTCA | inactive: -0.00675
152 | ACGTACCA | inactive: 0.0679
153 | AATCTCTC | inactive: -0.00201
154 | CTTTGACC | inactive: -0.0216
155 | GGCCTTGA | inactive: -0.179
156 | AGGAATGC | inactive: -0.00942
157 | AATCCGAG | inactive: -0.00289
158 | AACAGCAC | inactive: 0.108
159 | TAACAGCA | inactive: 0.145
160 | ACGGTTAG | inactive: -0.0469
161 | GCTGAGGA | inactive: -0.139
162 | ACGAATTG | inactive: 0.057
163 | CTAAGCAA | inactive: -0.0272
164 | GTTTAGTA | inactive: 0.183
165 | AAGCTCTG | inactive: -0.0643
166 | AGCTCTCA | inactive: -0.0906
167 | CGAACGAA | inactive: -0.0169
168 | GTTTTGCA | inactive: 0.0778
169 | AGTTTCTG | inactive: 0.0466
170 | GAGCTTCA | inactive: -0.0607
171 | CCCAGTGC | inactive: -0.151
172 | CAAGTTTA | inactive: 0.0933
173 | GCGGTTAC | inactive: -0.0733
174 | GATCGAAC | inactive: 0.0391
175 | ACCAAGAA | inactive: 0.0421

Row | Sequence | PBM E-score
176 | CGCGAATC | inactive: -0.0614
177 | AAGTAGTA | inactive: 0.186
178 | ATACTCCC | inactive: -0.00697
179 | CCTCTGGC | inactive: -0.225
180 | AGGGAGAC | inactive: -0.161
181 | ACGTGGAA | inactive: 0.0233
182 | AGGATGAG | inactive: -0.106
183 | TAGCAGAA | inactive: -0.00478
184 | ATTTAGCA | ≥ 0.0719
185 | TTCGAAAA | inactive: 0.029
186 | AGCTTGTG | inactive: -0.0301
187 | GTTGCCCA | inactive: -0.0462
188 | CATCTGCA | inactive: 0.0265
189 | GGATCCCC | inactive: -0.255
190 | CTTGGCCC | inactive: -0.35
191 | GTGCTACA | inactive: 0.169
192 | CACGCTAG | inactive: -0.0669
193 | ACTCCATG | inactive: 0.0194
194 | CCGAAACC | inactive: -0.0852
195 | AGAATCAA | inactive: 0.0334
196 | CCGTTCAA | inactive: -0.0813
197 | AACGGAAG | inactive: -0.0476
198 | GTAATCCA | inactive: 0.161
199 | CGGCGTGC | inactive: -0.208
200 | AACTCATC | inactive: 0.0561

Row | Sequence | PBM E-score
201 | GGGCTAAC | inactive: -0.179
202 | CTATTGCC | inactive: -0.0718
203 | GCAGAGCC | inactive: -0.291
204 | AACACTGA | inactive: 0.145
205 | AAGCGGCG | inactive: -0.17
206 | AATTCTGC | inactive: 0.00641
207 | GAGTGGGC | inactive: -0.155
208 | CACAACCA | inactive: 0.103
209 | CCGACTCG | inactive: -0.124
210 | AGATTTGG | inactive: -0.0132
211 | TACATCAA | active: 0.331
212 | GGGAACCC | inactive: -0.17
213 | CATGAAAA | inactive: 0.198
214 | CGACGAGA | inactive: -0.0279
215 | CCGGCTCG | inactive: -0.205
216 | GCCTGTAC | inactive: 0.164
217 | CACTTCGC | inactive: -0.0353
218 | CGGGGGTC | inactive: -0.274
219 | AAATACAA | active: 0.327
220 | CGGACACG | inactive: 0.184
221 | AACTGTAG | inactive: 0.121
222 | AAGTATCC | inactive: -0.0551
